# From publication PMC4336329 (PLoS ONE, 2015)
# Out of some 310,000 compounds screened, about 2,200 (0.71%) showed an effect of 50% or more. The effect is printed as a negative number. Some of the results follow.
# Biological target: human ether-à-go-go-related gene (hERG) potassium channel (human, UniProt Q12809)
# Experiment: primary screen, population patch clamp on CHO cells stably expressing hERG
# human ether-à-go-go-related gene (hERG) potassium channel, sequence (Q12809 whole entry, looked up): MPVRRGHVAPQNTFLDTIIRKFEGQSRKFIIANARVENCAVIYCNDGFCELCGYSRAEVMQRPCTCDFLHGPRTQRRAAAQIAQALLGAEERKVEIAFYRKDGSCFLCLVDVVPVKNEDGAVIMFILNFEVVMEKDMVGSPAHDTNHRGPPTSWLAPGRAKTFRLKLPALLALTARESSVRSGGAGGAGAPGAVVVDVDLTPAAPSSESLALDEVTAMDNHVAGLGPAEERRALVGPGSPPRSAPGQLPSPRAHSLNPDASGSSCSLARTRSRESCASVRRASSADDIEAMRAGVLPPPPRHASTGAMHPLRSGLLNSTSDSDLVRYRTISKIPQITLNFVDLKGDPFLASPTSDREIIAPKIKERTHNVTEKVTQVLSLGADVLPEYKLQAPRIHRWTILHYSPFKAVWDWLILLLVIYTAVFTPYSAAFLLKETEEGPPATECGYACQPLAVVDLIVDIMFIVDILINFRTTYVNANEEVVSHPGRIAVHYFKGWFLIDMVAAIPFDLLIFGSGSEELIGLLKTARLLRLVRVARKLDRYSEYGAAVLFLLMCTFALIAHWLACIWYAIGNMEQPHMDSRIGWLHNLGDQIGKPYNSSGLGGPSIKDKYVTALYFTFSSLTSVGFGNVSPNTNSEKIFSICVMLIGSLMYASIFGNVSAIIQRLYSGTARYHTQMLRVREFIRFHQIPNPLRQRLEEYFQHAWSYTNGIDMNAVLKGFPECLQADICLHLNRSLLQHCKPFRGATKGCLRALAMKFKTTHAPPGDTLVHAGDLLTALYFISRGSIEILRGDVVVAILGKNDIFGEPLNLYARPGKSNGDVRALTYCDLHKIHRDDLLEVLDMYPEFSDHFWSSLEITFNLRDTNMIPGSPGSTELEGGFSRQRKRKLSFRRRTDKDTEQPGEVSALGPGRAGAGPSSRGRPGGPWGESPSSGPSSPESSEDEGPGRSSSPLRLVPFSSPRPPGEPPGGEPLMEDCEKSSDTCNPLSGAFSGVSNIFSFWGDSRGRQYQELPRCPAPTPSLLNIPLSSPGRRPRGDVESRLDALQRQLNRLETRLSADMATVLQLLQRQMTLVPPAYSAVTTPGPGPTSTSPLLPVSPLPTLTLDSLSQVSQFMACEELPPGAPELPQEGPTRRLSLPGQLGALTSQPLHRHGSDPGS
row,Compound,"hERG current change (%, negative = inhibition) at 1uM [%]"
1,CC(=O)NCCC(=O)Nc1cc(S(=O)(=O)N2CCCCC2)ccc1Oc1ccccc1,-28.9
2,O=S(=O)(N/N=C/c1ccc(N2CCOCC2)cc1)c1ccc(Br)cc1,11.6
3,Cc1ccc(SC[C@H](C)CN2CC[C@H](C(C)(C)C)CCC2=O)cc1,0.221
4,COc1ccc(CC(=O)Nc2ccc(C(=O)NC(C)(C)C)cc2)cc1OC,2.58
5,Cc1cc(-n2c(=O)c(C#N)cc3c(=O)n4ccccc4nc32)no1,12.5
6,Cc1c(-c2ccc(Cl)cc2)[n+](=O)c(-c2ccccc2)cn1[O-],10.3
7,CCCCOC(=O)C1=C(C)NC(=O)NC1c1cccc([N+](=O)[O-])c1 (stereo not drawn),6.45
8,O=C1/C(=C/c2ccco2)SC(=S)N1CCC(=O)N1CCCCC1CCO (stereo not drawn),13
9,Nc1c(N(CCC2=CCCCC2)C(=O)c2ccco2)c(=O)[nH]c(=O)n1Cc1ccccc1,26
10,COc1cccc(-c2cc(C(F)(F)F)nc(-n3cncn3)n2)c1,-19.8
11,COCCCNC(=O)CCN1N=C(c2ccccc2)CCC1=O,13.8
12,COc1ccc(NC(=O)Cc2ccsc2)c(OC)c1,4.97
13,O=C(NCCCCc1ccccc1)C1CC(c2cc(C(F)(F)F)cc(C(F)(F)F)c2)=NO1 (stereo not drawn),14.1
14,O=C(NCc1ccco1)c1cc([N+](=O)[O-])cc([N+](=O)[O-])c1,-0.528
15,COc1ccccc1OCC(=O)Nc1oc(-c2ccccc2)c(-c2ccccc2)c1C#N,6.3
16,O=C(NCc1ccccc1F)C1CCCN(c2cnccn2)C1 (stereo not drawn),10.5
17,NC(=O)c1ccc(C2SCC(=O)N2Cc2ccccc2)cc1 (stereo not drawn),8.82
18,O=[N+]([O-])c1ccc2[nH]c(O)c(N=NC3CCS(=O)(=O)C3)c2c1 (stereo not drawn),14.3
19,CC(NC(=O)c1ccccc1)c1nnc(SCc2nc3ccccc3c(=O)[nH]2)n1C (stereo not drawn),17
20,CC(=O)c1ccc(C(=O)Nc2ccc3c(c2)C(=O)NC3=O)cc1,12.4
21,CC(C)c1onc(C(=O)N2CCCCC2)c1[N+](=O)[O-],6.87
22,COc1ccc(NS(=O)(=O)c2ccc(O)c(C(=O)OCC(=O)Nc3ccc4c(c3)OCCO4)c2)cc1,11.6

row,Compound,"hERG current change (%, negative = inhibition) at 1uM [%]"
1,CCCCSc1nc(C)nc2c1c(=O)n(C)c(=O)n2C,11.2
2,CN(c1ccccc1)S(=O)(=O)c1ccc(Cl)c(C(=O)Nc2ccc(N3CCOCC3)cc2)c1,11.5
3,CNC(=O)c1sccc1Oc1ccc(F)cc1[N+](=O)[O-],16.9
4,COc1ccc(-c2ccoc2)cc1[C@H]1[C@H]2C=CC[C@@H](C)[C@@H]2C(=O)N1Cc1ccccc1,9.05
5,O=C(NC1CCCCC1)N(Cc1cc2cc3c(cc2[nH]c1=O)OCCO3)C1CCCCC1,-4.63
6,CCCNC(=O)COC(=O)/C(C#N)=C/c1cc(C)n(CCC)c1C,9.82
7,CN(C)S(=O)(=O)c1cccc(NC(=O)COC(=O)c2cc(=O)[nH]c(=O)[nH]2)c1,9.41
8,CCCCCn1nc(C(=O)OCC(=O)c2c(N)n(C)c(=O)n(C)c2=O)c2ccccc2c1=O,5.72
9,COc1cc(OC)c(C(=O)N(CCc2ccccc2)Cc2ccccc2)cc1OC,-0.9
10,COc1ccc(OC)c(S(=O)(=O)N/N=C(/C)c2ccc3c(c2)OCO3)c1,-2.83
11,C/C=C1/CN2C3CC1C(CO)(C(=O)OC)C2Cc1c3n(C)c2ccccc12 (stereo not drawn),10.1
12,O=C(/C=C/c1ccc2c(c1)OCO2)c1ccc(F)cc1,14.7
13,O=C(CSc1nnc(-c2ccccc2)n1-c1ccccc1)c1cccs1,6.55
14,COC(=O)CSC1=C(C#N)C(c2ccc(F)cc2)CC(=O)N1 (stereo not drawn),11.9
15,COc1cc(C)nc(N2CCC(C(=O)NCC3CCCO3)CC2)n1 (stereo not drawn),4.28
16,c1ccc2nc3c(cc2c1)CCCCC3,6.14
17,Cc1ccc(CCC(=O)Nc2ccc(C)c(C)c2)o1,-10.3
18,COc1ccc(-n2nc(C(=O)NCC(=O)NCCN(C)C)c3ccccc3c2=O)cc1,13
19,CC1(C)Cc2c(cnn2-c2ccc(F)cc2)C(NC(=O)CCC(F)(F)F)C1 (stereo not drawn),-6.85
20,O=C(NC1CC1)c1cccc(Oc2ccccc2)c1,9.68
21,CCCCN1C(=O)NC(NC(C)=O)(C(F)(F)F)C1=O (stereo not drawn),12.5
22,C=CCOC(=O)C1=C[C@H](c2cn(C(C)=O)c3ccccc23)C[C@H](OCCCCO)O1,-0.762

row,Compound,"hERG current change (%, negative = inhibition) at 1uM [%]"
1,COc1cc2c(cc1NC(=O)COC(=O)[C@@H](NS(=O)(=O)c1ccccc1)C(C)C)oc1ccccc12,11
2,COc1ccccc1CN1CCN(Cc2nc(Cc3ccccc3)no2)CC1,-1.92
3,O=C(CSc1nc(-c2ccco2)cc(C(F)(F)F)n1)Nc1ccc2c(c1)CCC2,-5.73
4,CN1CCN(CCN2CCn3c2nc2ccccc23)CC1.Cl,5.64
5,CCCCCn1cnnc1SCC(=O)c1ccc2c(c1)OCO2,0.674
6,COc1cc2c(cc1OC)CN(C(=O)C(CCSC)NS(=O)(=O)c1ccc(C)cc1)CC2 (stereo not drawn),11
7,Cc1ccccc1NCC(=O)c1ccc(Br)cc1,3.96
8,C=C(C)CNC(=S)NNC(=O)c1ccco1,18.9
9,COc1ccc2c(c1)C(=O)N1[C@H]3c4cc(C)ccc4OC[C@@H]3[C@H](c3ccccc3)[C@]1(C)C(=O)N2,7.91
10,COc1ccc(CNC(=O)C2CC(C)=C(C)CC2C(=O)O)cc1OC (stereo not drawn),19.5
11,Fc1cccc2sc(Nc3nnc(-c4ccco4)o3)nc12,30.5
12,Cc1cc(C)c2nc(-c3cccnc3)cc(C(=O)Nc3ccc(S(=O)(=O)Nc4onc(C)c4C)cc3)c2c1,8.82
13,O=C(O)CCCCCCCC(=O)O,14.6
14,O=C(c1ccccc1)c1cccc(NC(=O)c2ccco2)c1,1.67
15,N#Cc1nc(-c2cccs2)oc1NCc1ccco1,6.98
16,COC(=O)[C@@H]1CCCN1C(=O)c1cc(COc2cccc3cccnc23)on1,9.43
17,Cc1cc(C)n(-c2ccc(C(=O)OCC(=O)c3c(N)n(C)c(=O)n(C)c3=O)cc2)n1,-1.25
18,Cc1nonc1C1CCCN1C(=O)c1cc(COc2ccc(F)cc2F)on1 (stereo not drawn),8.83
19,Cc1cccc(C2c3[nH]c4ccccc4c3CCN2C(=O)Cc2n[nH]c(C)n2)n1 (stereo not drawn),13.8
20,O=C(O)c1nn(CCOc2ccc(Cl)cc2Cl)c(=O)c2ccccc12,20.5
21,O=C(Cc1nn[nH]n1)NCCC1=CCCCC1,12.9
22,N/N=C(\c1ccccc1)C12CN3CN(CN(C3)C1)C2,16

row,Compound,"hERG current change (%, negative = inhibition) at 1uM [%]"
1,Cc1cc(C(=O)OCc2nc3ccccc3s2)c(C)o1,1.87
2,CC1(C)CC(C(CC(=O)O)c2ccccc2)CCO1 (stereo not drawn),21.2
3,NS(=O)(=O)c1ccc(CNC(=O)/C=C/c2ccccc2)cc1,12.7
4,CCOc1ccc(CN2CCN(CC(O)Cn3c4ccccc4c4ccccc43)CC2)cc1 (stereo not drawn),3.32
5,NC(=O)N1CCC2(CC1)NC(=O)N(c1ccccc1)N2,9.56
6,CC1SCC(NC(=O)c2ccc(Cl)cc2)CS1 (stereo not drawn),2.14
7,CC1(C)C(=O)OC(c2cccn2-c2ccc([N+](=O)[O-])cc2)C2(CCCCC2)C1=O (stereo not drawn),12.7
8,Cl.NS(=O)(=O)c1cccc(NC(=O)c2cc(-c3cccs3)nc3ccccc23)c1,11.7
9,CCC(=O)Oc1ccc2ccccc2c1CNC(=O)c1ccccc1,3.78
10,O=C(NC1CCCCC1)C(c1ccc2ncccc2c1)N(Cc1ccccc1)C(=O)c1ccc2c(c1)OCCO2 (stereo not drawn),11.2
11,CN1C(=O)[C@H]2[C@@H](/C=C/c3ccccc3)N3C(=O)CN(CCO)C(=O)[C@@]3(Cc3ccccc3)[C@H]2C1=O,5.07
12,CCCCN(C(=O)c1c(C)noc1C)c1c(N)n(CCCC)c(=O)[nH]c1=O,13.2
13,CC(=O)NCc1ccc(-c2nc3ccccc3s2)cc1,12.7
14,CC1=C(C(=O)Nc2cccc(C(=O)N3CCC(C(N)=O)CC3)c2)SCCO1,23
15,COc1ccccc1-c1nc2n(n1)C(c1ccccc1Cl)C(C(N)=O)=C(C)N2 (stereo not drawn),2.61
16,CCOC(=O)c1[nH]c2ccccc2c1NC(=O)c1ccc(S(=O)(=O)N(C)C)cc1,6.38
17,Cc1nnc(C)n1/N=C/c1cccc([N+](=O)[O-])c1,14.2
18,COc1ccc(NC(=O)CSc2nc(C)cc(C)n2)cc1,11.2
19,COC(=O)c1ccc(-n2nnnc2SCC(=O)Nc2ccccc2F)cc1,14.4
20,Clc1ccc(C(CCN2CCCC2)Cc2ccccc2)cc1 (stereo not drawn),-6.23
21,CC(C)(CNC(=O)c1cccc(S(=O)(=O)Nc2ccc(Br)cc2)c1)N1CCOCC1,-1.64
